This note sets out measurements from paper PMC4336329 (PLoS ONE, 2015).

In all, about 310,000 compounds went through this assay and about 2,200 (0.71%) showed an effect of 50% or more. Effects have a minus sign here. This is one part of the list.

In this experiment the target is human ether-à-go-go-related gene (hERG) potassium channel (human, UniProt Q12809). Description: primary screen, population patch clamp on CHO cells stably expressing hERG.
human ether-à-go-go-related gene (hERG) potassium channel, sequence (Q12809 whole entry, looked up): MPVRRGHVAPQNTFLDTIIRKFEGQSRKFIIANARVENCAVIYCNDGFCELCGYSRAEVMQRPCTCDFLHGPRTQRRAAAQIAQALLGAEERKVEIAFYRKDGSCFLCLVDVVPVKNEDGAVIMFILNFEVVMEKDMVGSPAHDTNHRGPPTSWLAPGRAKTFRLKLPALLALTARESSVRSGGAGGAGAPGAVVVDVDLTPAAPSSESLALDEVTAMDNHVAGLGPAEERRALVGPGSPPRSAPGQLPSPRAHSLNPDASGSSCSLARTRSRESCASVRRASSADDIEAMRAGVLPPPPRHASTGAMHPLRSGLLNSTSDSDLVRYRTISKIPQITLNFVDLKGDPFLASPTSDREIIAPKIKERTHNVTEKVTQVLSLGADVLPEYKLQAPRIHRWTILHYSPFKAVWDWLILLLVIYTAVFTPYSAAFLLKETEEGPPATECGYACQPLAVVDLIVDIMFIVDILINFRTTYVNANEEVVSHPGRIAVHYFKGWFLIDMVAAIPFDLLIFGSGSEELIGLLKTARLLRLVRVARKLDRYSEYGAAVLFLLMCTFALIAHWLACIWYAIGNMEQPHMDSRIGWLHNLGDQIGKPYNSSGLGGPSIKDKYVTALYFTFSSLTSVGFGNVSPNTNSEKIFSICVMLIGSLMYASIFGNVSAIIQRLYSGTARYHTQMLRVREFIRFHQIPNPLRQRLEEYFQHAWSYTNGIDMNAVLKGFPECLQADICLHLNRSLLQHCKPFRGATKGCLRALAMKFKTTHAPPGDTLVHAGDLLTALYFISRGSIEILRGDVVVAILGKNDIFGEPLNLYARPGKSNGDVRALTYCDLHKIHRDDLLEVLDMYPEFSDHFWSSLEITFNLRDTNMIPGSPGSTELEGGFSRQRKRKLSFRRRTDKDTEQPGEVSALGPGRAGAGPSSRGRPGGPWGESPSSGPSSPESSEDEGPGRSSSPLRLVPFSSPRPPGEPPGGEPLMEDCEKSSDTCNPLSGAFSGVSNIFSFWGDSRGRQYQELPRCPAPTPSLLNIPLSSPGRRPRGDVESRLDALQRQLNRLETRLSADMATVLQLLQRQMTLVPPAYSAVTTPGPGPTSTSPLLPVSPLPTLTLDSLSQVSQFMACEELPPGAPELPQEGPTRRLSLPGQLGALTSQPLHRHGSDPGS
For the compound `CN1C(=O)c2cccc3c(S(=O)(=O)Nc4ccccn4)ccc1c23`, the “hERG current change (%, negative = inhibition) at 1uM” value was 5.11%.

Take `CCCOc1c(Br)cc(C2C3=C(CCCC3=O)N(C)C3=C2C(=O)CCC3)cc1OC`: the “hERG current change (%, negative = inhibition) at 1uM” value is on record as -1.18%. To `CCOc1ccc(OCc2cccc(C(=O)N3CCCC3)c2)cc1` belongs 10.5%; to `COC(c1ccc(Cl)cc1)(c1ccc(Cl)cc1)C(Oc1nccc(C)n1)C(=O)O` (stereo not shown), 15.4%; to `COc1ccc(OC)c(NC(=O)c2ccc(CN(c3cc(Cl)ccc3C)S(=O)(=O)c3ccccc3)cc2)c1`, 5.74%. To `CCOC(=O)N1CCN(C(=O)C2CCCN(S(=O)(=O)c3cc(C)ccc3OC)C2)CC1` (stereo not shown) belongs 3.06%; to `COc1ccc(C(O)P(=O)(OCc2ccccc2)c2ccc(N(C)C)cc2)cc1` (stereo not shown), 13.4%. To `C/C(=N\NC(=S)NC1CCCCC1)c1cccs1` belongs 8.24%; to `Clc1ccc(-c2nc3ncccn3c2Nc2ccc3c(c2)OCCO3)cc1`, 17%; to `Cc1cc[n+](CC2OCc3ccccc3CO2)cc1.[Br-]`, 7.93%. As for `O=C1CCc2cc(S(=O)(=O)N3CCN(c4ccccc4)CC3)cc3c2N1CCC3`, the “hERG current change (%, negative = inhibition) at 1uM” value was 2.05%. As for `Cc1cc(C)cc(NC(=O)CSc2nc3c(c(=O)[nH]2)CN(Cc2ccc(F)cc2)CC3)c1`, the “hERG current change (%, negative = inhibition) at 1uM” value is 1.69%.

Take `COc1ccc(CNC(=O)C(NC(C)=O)C(=O)Nc2ccc(C(C)C)cc2)cc1` (stereo not shown): the “hERG current change (%, negative = inhibition) at 1uM” value stood at 19.9%. In the case of `COC(=O)c1c(C(=O)OC)c(-c2ccccc2)n2c1CS(=O)C2` (stereo not shown) it was 9.86%. In the case of `COc1cc2nc(N(C)C)nc(N)c2cc1OC.Cl` it was -6.59%; in that of `O=C(c1cccc(S(=O)(=O)Nc2ccc(F)cc2)c1)N1CCC1`, 14.6%. Take `CCCCN(CC)C(=O)Cn1ncc2c3ccccc3n(CCC)c2c1=O`: the “hERG current change (%, negative = inhibition) at 1uM” value is reported as -2.29%.

`CNC(=S)N/N=C/c1c2ccccc2c(Cl)c2ccccc12`: the “hERG current change (%, negative = inhibition) at 1uM” value was determined as 15.9%. Consider `O=C(NCc1ccccc1F)C(=O)NCC1OCCCN1S(=O)(=O)c1cccs1` (stereo not shown), for which the “hERG current change (%, negative = inhibition) at 1uM” value is listed as 15%. `N/C(CSc1ccccn1)=N\OCc1c(Cl)cccc1Cl`: the “hERG current change (%, negative = inhibition) at 1uM” value is 11%. Take `O=S(=O)(NCc1nnc2ccccn12)c1ccc(Cl)cc1`: the “hERG current change (%, negative = inhibition) at 1uM” value amounted to 15.5%. Turning to `N#Cc1cnc(Oc2ccc(Cl)cc2)nc1N`, the “hERG current change (%, negative = inhibition) at 1uM” value turned out to be 11.7%. Take `O=C(Cc1cccs1)N/N=C/c1ccccn1`: the “hERG current change (%, negative = inhibition) at 1uM” value was 12.6%. For `CCNC(=O)C1CCCN1C(=O)C(CCCN=C(N)N)NC(=O)C(CC(C)C)NC(=O)C(Cc1cn(Cc2ccccc2)cn1)NC(=O)C(Cc1ccc(O)cc1)NC(=O)C(CO)NC(=O)C(Cc1c[nH]c2ccccc12)NC(=O)C(Cc1cnc[nH]1)NC(=O)C1CCC(=O)N1` (stereo not shown), the “hERG current change (%, negative = inhibition) at 1uM” value is on record as 12.7%. In the case of `COc1ccc2c(c1)c(C(=O)N1CCN(C)CC1)c(C)n2-c1ccccc1` it was -5.59%; in that of `O=C(NCCNC(=O)c1ccco1)c1cccc(F)c1`, 12.7%; in that of `c1csc(-c2nc(CN3CCSCC3)cs2)c1`, 13%. In the case of `Cc1ccc2nc(-c3cccc(Br)c3)cc(C(=O)NCC3CCCO3)c2c1` (stereo not shown) it was 9.13%; in that of `C/C(=N\N=C1\NC(=O)C(CC(=O)Nc2ccc(C)c(Cl)c2)S1)C(C)C` (stereo not shown), 14.4%. In the case of `CCNC(=S)Nc1ccc(Oc2ccccc2)cc1` it was 10.1%; in that of `COCCCN1C(=O)c2ccccc2C1C(=O)NC1CCCCCC1` (stereo not shown), 2.08%. Turning to `COc1cccc(NC(=O)C(NCC2CCCCC2)c2ccccc2)c1.O=C(O)C(=O)O` (stereo not shown), the “hERG current change (%, negative = inhibition) at 1uM” value turned out to be 11.8%.

Turning to `COc1ccccc1Nc1nc(NCCC(C)C)nc(N)c1[N+](=O)[O-]`, the “hERG current change (%, negative = inhibition) at 1uM” value turned out to be 14%. For `CCOC(=O)c1ccc2c(c1)n(CCCS(=O)(=O)[O-])c(/C=C/c1ccc(Cl)cc1)[n+]2CC`, the “hERG current change (%, negative = inhibition) at 1uM” value was -7.29%. In the case of `COCC1CCN(C(=O)C2CCC(=O)N(Cc3cccc(F)c3)C2)CC1` (stereo not shown) it was 7.11%; in that of `COc1ccc(CN2CCN(c3ccccc3)CC2)c(C)c1C`, -5.87%; in that of `CCOC(=O)CCC(NC(=O)CCCCCCCCC(=O)NC(CCC(=O)OCC)C(=O)OCC)C(=O)OCC` (stereo not shown), 9.55%.

On to `Cc1ccccc1NC(=S)N1CCC(NC(=O)c2ccco2)CC1`, for which the “hERG current change (%, negative = inhibition) at 1uM” value is recorded as -9.84%. In the case of `CCN1CCN(C(=S)Nc2ccsc2C(=O)OC)CC1` it was 5.27%; in that of `COc1ccc(CC(=O)Nc2nc(C)cs2)cc1OC`, -14%. In the case of `CC1(C)NC(=O)N(CC(=O)OCC(=O)Nc2cc(S(=O)(=O)N3CCCCCC3)ccc2Cl)C1=O` it was 5.4%; in that of `O=C(c1ccc(S(=O)(=O)N2CCCC2)cc1)N(Cc1ccco1)C1CCS(=O)(=O)C1` (stereo not shown), 4.57%.

Regarding `CCOc1ccccc1NC(=O)c1ccc(CN2CCc3ccccc3C2)cc1`, the “hERG current change (%, negative = inhibition) at 1uM” value was determined as 13.1%.

`CC(C)c1ccc(C2CC(=O)c3cnc(N4CCc5ccccc5C4)nc3C2)cc1` (stereo not shown): the “hERG current change (%, negative = inhibition) at 1uM” value amounted to 2.78%. Take `O=C(COC(=O)c1ccccn1)NCCCc1ccccc1`: the “hERG current change (%, negative = inhibition) at 1uM” value is reported as 10.3%. In the case of `CCOc1ccc(S(=O)(=O)N2CCN(C(=O)c3ccc(-n4cncn4)c([N+](=O)[O-])c3)CC2)cc1` it was -2.11%; in that of `COCCNC(=O)c1ccccc1NS(=O)(=O)c1ccc(Br)s1`, -1.73%; in that of `CCOc1ccc(NS(=O)(=O)c2ccc(-c3cnc(C4CC4)o3)cc2)cc1`, 8.66%.

On to `Cc1ccc(OCC(=O)N(Cc2nnc(-c3ccccc3Cl)o2)C2CC2)cc1C`, for which the “hERG current change (%, negative = inhibition) at 1uM” value was found to be 3.67%. Consider `O=C(Nc1ccccc1Cl)c1ccc2nccnc2c1`, for which the “hERG current change (%, negative = inhibition) at 1uM” value was determined as 11%. In the case of `Cc1ccc(C2(c3noc(CN(C)CC4COCCO4)n3)CCCC2)cc1` (stereo not shown) it was 9.05%; in that of `O=C1CN(C(=O)c2cccc(F)c2)C(c2ccc(F)cc2)c2cc(F)ccc2N1` (stereo not shown), 2.99%.

Take `COc1ccc(C(c2nnnn2C2CCCC2)N2CCN(c3ccccc3)CC2)cc1` (stereo not shown): the “hERG current change (%, negative = inhibition) at 1uM” value was 8.87%.

Take `Cc1cc2c(C)cc(=O)[nH]c2cc1NC(=O)CCl`: the “hERG current change (%, negative = inhibition) at 1uM” value worked out at 12.8%. In the case of `Cc1cc(NS(=O)(=O)c2ccc(NC(=O)C(C)Oc3cccc(C)c3C)cc2)nc(C)n1` (stereo not shown) it was 13.5%; in that of `CSc1ccccc1NC(=O)CN(C)CC(=O)Nc1cc(C)ccc1C`, 3.34%; in that of `CC(=O)OCCCN1C(=O)c2cccc3cc(Br)cc(c23)C1=O`, 13.7%.

Consider `CN(C1CCCCC1)S(=O)(=O)c1cccc(C#N)c1`, for which the “hERG current change (%, negative = inhibition) at 1uM” value turned out to be 18.5%.

As for `O=C(CCC(=O)OCC(=O)c1ccc(-c2ccccc2)cc1)Nc1cccc2cccnc12`, the “hERG current change (%, negative = inhibition) at 1uM” value is on record as 12.9%.

With `CCCCC(=O)Nc1ccc2c(c1)C(=O)NC2=O`, the “hERG current change (%, negative = inhibition) at 1uM” value is 4.32%. `COc1ccc(-c2c(NC(C)=O)n(C)c3ccccc3c2=O)cc1`: the “hERG current change (%, negative = inhibition) at 1uM” value was determined as 2.8%. Take `CCOC(=O)N1CCC(NC(=O)c2cnn3c2NC(c2ccco2)CC3C(F)(F)F)CC1` (stereo not shown): the “hERG current change (%, negative = inhibition) at 1uM” value came out at 2.18%. In the case of `CCc1ccc(CC)c(S(=O)(=O)Nc2ccc(O)c(C(=O)O)c2)c1` it was -6.83%.

On to `CCN1CCN(C(=O)c2c(-c3c(Cl)cccc3Cl)noc2C)CC1`, for which the “hERG current change (%, negative = inhibition) at 1uM” value is given as 11.9%.

Take `CC(C(=O)NC1CCCC1)N(Cc1ccc2c(c1)OCO2)C(=O)c1snc(C(N)=O)c1N` (stereo not shown): the “hERG current change (%, negative = inhibition) at 1uM” value stood at 14%.

Consider `CC(=O)c1ccc(NC(=S)NC(=O)/C=C/c2ccco2)cc1`, for which the “hERG current change (%, negative = inhibition) at 1uM” value is recorded as 12.9%.

On to `Cc1nn(C)c(C)c1/C=C/C(=O)O`, for which the “hERG current change (%, negative = inhibition) at 1uM” value was 7.48%. Regarding `c1csc(-c2nc3ccccn3c2NC2CCCCC2)c1`, the “hERG current change (%, negative = inhibition) at 1uM” value is recorded as 3.51%.

On to `O=C(NCC(=O)N(CCN1CCOCC1)C(C(=O)NC1CCCC1)c1cccs1)c1ccco1` (stereo not shown), for which the “hERG current change (%, negative = inhibition) at 1uM” value amounted to 5.39%.

Take `CCOC(=O)C(NCCCO)c1ccccc1` (stereo not shown): the “hERG current change (%, negative = inhibition) at 1uM” value is reported as 5.28%. Turning to `CN(C(=O)c1ccccn1)c1nnc(-c2cccnc2)s1`, the “hERG current change (%, negative = inhibition) at 1uM” value amounted to 7.46%.

As for `CCCCCCC(=O)N/N=C/Cc1ccccc1`, the “hERG current change (%, negative = inhibition) at 1uM” value is recorded as 1.46%. In the case of `C=CCNC(=O)/C(=C/c1ccco1)NC(=O)c1ccc(Br)o1` it was 9.22%; in that of `Cc1ccccc1Oc1ccccc1N`, 17.3%; in that of `Cc1cc2nc3c(=O)n(Cc4ccccc4)c(=O)[nH]c3nc2cc1N`, 7.59%. Regarding `O=C(Nc1ccccc1Cl)c1ccc2nc(N3CCOCC3)sc2c1`, the “hERG current change (%, negative = inhibition) at 1uM” value came out at 11.4%.

On to `COc1ccc(/C(N)=N/OC(=O)CSc2ccccc2)cc1OC`, for which the “hERG current change (%, negative = inhibition) at 1uM” value was found to be 11%. On to `COc1cc(OC)c(C2NC(=O)CCC2[N+](=O)[O-])cc1OC` (stereo not shown), for which the “hERG current change (%, negative = inhibition) at 1uM” value is given as 12.3%.

For the compound `Nc1nonc1C(=Nc1ccc(Br)cc1)NO`, the “hERG current change (%, negative = inhibition) at 1uM” value is 9.26%.

Turning to `COc1ccc(C(=O)O)cc1NCc1ccc(C)s1`, the “hERG current change (%, negative = inhibition) at 1uM” value came to 20.7%. In the case of `Cc1cc(Cl)c(S(=O)(=O)NCc2cccnc2)cc1OCC(=O)NC1CCCCC1` it was -18.8%; in that of `Cc1cc(Cl)ccc1C(=O)C1CCCN(C(=O)c2cnsn2)C1` (stereo not shown), 7.09%; in that of `CC(=O)c1ccccc1C(=O)NCc1cccnc1`, 3.39%. To `CCOC(=O)N1CCC(N2CCN(S(=O)(=O)c3ccc(OC)cc3)CC2)CC1.O=C(O)C(=O)O` belongs 1.98%; to `COc1ccc(/C=C/C(=O)Nc2sc(Cc3ccccc3)c(C)c2C(N)=O)cc1`, 4.59%.

As to `O=C(NCc1nnnn1-c1ccc(F)cc1)c1ccc([N+](=O)[O-])o1`, the “hERG current change (%, negative = inhibition) at 1uM” value amounted to 3.63%. With `Cn1ccsc1=NC(=O)c1ccc([N+](=O)[O-])o1`, the “hERG current change (%, negative = inhibition) at 1uM” value is reported as 2.7%. `CCOc1ccc(S(=O)(=O)NCCC(=O)Nc2cccc(C(=O)OC)c2)cc1`: the “hERG current change (%, negative = inhibition) at 1uM” value was 2.98%.
